Data from patent publication US20210015895A1 (PROCLARA BIOSCIENCES, published 2021).
Numbering of substitutions follows the chain as printed.

B1: Polypeptide No. 93 (Fc fusion)
chain: AETVESCLAKPHTENSFTNVWKDDKTLDRYANYEGCLWNATGVVVCTGDETQCYGTWVPIGLAIPENEGGGSEGGGSEGGGSEGGGTKPPEYGDTPIPGYTYINPLDGTYPPGTEQNPANPNPSLEESQPLNTFKFQNNRFRNRQGALTVYTGTFTQGTDPVKTYYQYTPVSSKAMYDAYRNGKFRDCAFHSGFNEDPFVCEYQGQSSDLPQPPANAGGESGGGSGGGSEGGGSEGGGSEGGGSEGGGSGGGSGSGARS[human IgG1 Fc not printed]
B2: Polypeptide No. 97 (Fc fusion)
chain: B1 chain with K135T
B3: Polypeptide No. 101 (Fc fusion)
chain: B1 chain with K135M, R140Q
B4: Polypeptide No. 95 (Fc fusion)
chain: B1 chain with K135T, D178N, R181W
B5: Polypeptide No. 96 (Fc fusion)
chain: B1 chain with K135T, R181H
B6: Polypeptide No. 102 (Fc fusion)
chain: B1 chain with K135M, R140Q, K174R, R181W
B7: mature fusion protein of SEQ ID NO:1 omitting M258 and V259 (Fc fusion)
chain: B1 chain with K135M, R181W, A215V, E220G
notes: also called mature fusion protein lacking M258 and V259
B8: Polypeptide No. 99 (Fc fusion)
chain: B1 chain with K135M, R140Q, D178N, R181W
B9: Polypeptide No. 100 (Fc fusion)
chain: B1 chain with K135M, R140Q, R181H

Columns and labels:
Aβ42 fibers [1] = target: T1, Aβ42 fibers (UniProt P05067 in part); assay: ELISA on coated Aβ42 fibers; IC50 ratio to SEQ ID NO:2
T1 construct: domain: Aβ42; Fibrillar aggregate dry-coated on ELISA plates; number of chains in a fiber not defined; also called ABeta; Abeta
Method: To each well of a 96-well plate (F96 MAXISORP NUNC-IMMUNO PLATE; Catalog number: 442404, Lot 125436 and 128158; Denmark) was added 200 μL of a 1% BSA solution. The plates were sealed and incubated at 7° C. for 3 hr. Plates were then washed with PBS (250 μL/well)×3. We added 50 μL of the diluted Aβ42 fiber solution (1.6 μM) to each well and incubated uncovered at 37° C. overnight to complete dryness. PBS (50 μl/well) is added to control wells (without Aβ42 fibers). Plates were then washed 2× with water and 1× with PBS (250 μL/well for each washing).
Varying concentrations of each polypeptide (as well as the polypeptide of SEQ ID NO:2) in 50 μL were added to each well, as well as to non-Aβ42 fiber coated wells and incubated for 1 h at 37° C. Plates were then washed 3× with PBS-T (0.05% Tween 20 in PBS) and 3× with PBS (250 μL/well for each washing). We then added 50 μl of HRP-conjugated Goat anti-Human anti Fcγ (Jackson Labs, Catalog number, 109-035-008, Lot number: 106617) diluted 1:2500 (0.32 μg/mL final) in PBS-T+1% Milk (Difco™ Skim Milk, Becton, Dickinson and Company. USA, Catalog number: 232100, Lot number: 7320448) to each well and incubated for 40 min at 37° C. Plates were then washed 6× with PBS-T and 2× with PBS (250 μL/well for each washing). We then added 50 μl/well OPD solution (5 mg/7.5 ml 0.05 M Citrate buffer pH-5.513 μl H₂O₂) and let color to develop for 3-6 min. We next added 25 μl/well of 4N HCl solution to stop reaction. Plates were read for absorbance at 492 nm and 405 nm. The 405 nm absorbance was subtracted from the 492 nm absorbance and the results plotted as a function of polypeptide concentrations. An IC₅₀ for binding for each deimmunized polypeptide was then calculated and compared to the IC₅₀ calculated for the polypeptide of SEQ ID NO:2.
The above-indicated polypeptides were assayed for binding to beta-amyloid using the ELISA assay set forth in Example 5. Relative binding values reflect IC₅₀ (polypeptide of SEQ ID NO:2)/IC₅₀ (tested polypeptide) (e.g., the lower the value the greater the binding of the polypeptide as compared to a polypeptide of SEQ ID NO:2). Multiple values reflect duplicate testing in the binding assay.

Aβ42 fibers [2] = target: T1, Aβ42 fibers; assay: ELISA on coated Aβ42 fibers
T1 sequence (P05067 672-713 limits assumed): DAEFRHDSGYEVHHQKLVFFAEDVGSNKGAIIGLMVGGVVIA

Binder	Relative Binding Value (Aβ42 fibers [1]) [ratio]	binding result (Aβ42 fibers [2])
B1	0.34	–
B2	0.14	–
B3	0.2	–
B4	0.07	–
B5	0.15	–
B6	0.23	–
B7	–	binds
B8	0.11	–
B9	0.36	–
